Results taken from the supplement of paper PMC10338343.
± gives the standard deviation. In all, about 5,500 sequences were measured (“pre-steady-state target cleavage rate”: median about 0.1, highest 2% from about 0.64 on). Only a part is listed here, and it is no random draw.

system: MIWI (PIWIL1) piRISC loaded with piRNA #2 (30 nt); assay: pre-steady-state target cleavage rate (min^-1); MIWI and MILI are mouse PIWI proteins and EfPiwi is from a freshwater sponge; tags in brackets are library labels; higher = faster piRNA-guided slicing of the target; conditions: guide: piRNA #2 5'p-UUAGGUAACCCAGUAGAUCCAGAGGAAUUC; auxiliary factor: 500 nM mouse GTSF1
Summary of the method: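 Cleave-'n-Seq: 1 nM active affinity-purified piRISC with one synthetic guide and 0.1 nM transcribed, DNA-blocked target RNA library were mixed, with or without 500 nM GTSF1 partner protein, in HEPES–potassium acetate buffer at 33 °C for 0–8 or 0–960 min. Uncleaved targets were sequenced and normalised to depth and to weakly complementary targets, three trials were pooled, and k3 was capped at 0.0001 min^-1. The pre-steady-state cleavage rate was fitted […].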

Sequence	pre-steady-state target cleavage rate
CUUUUCCACUGGAUCUACUGGGUUACCAAA	0.303 ± 0.037
CUUAACGUCUGGAUCUACUGGGUUACGUAA	0.518 ± 0.052
CUUAACCUCUGGAUCUACUGGGUUAGGAAA	0.0155 ± 0.0049
CUUUUCCUGUGGAUCUACUGGGUUAGCUAA	0.104 ± 0.023
CUAUUCCUCUGGCAUCUACUGGGUUACCUAA	0.399 ± 0.1
CUUAACCUCUGGAUCUACUGGGUUACGUUA	0.292 ± 0.032
CUAUUCCUCUGGAUCUUCUGGGUUACCUUA	0.313 ± 0.054
CUUAACCUCUGGAUCUUCUGGGUUACCUAA	0.228 ± 0.028
CUUAAGGAGACCUAGAUGUGGGUUACACUAA	< 0.0001
GAAUUCCUCUCGAUCUACUGCGUUACCUAA	0.691 ± 0.063
CUAUUCCACUGGAUGUACUGGGUUACCUAA	0.396 ± 0.036
CUUAAGGAGAGGAUCUACUGGGUUACCCAA	0.0246 ± 0.0055
CUUUUCCUCUGGAUCUACUGGGUAACGUAA	0.232 ± 0.036
CAAUCCCUCUGGAUCUACUGGGUUACCUAA	0.424 ± 0.054
CUUAACCACAGGAUCUACUGGGUUACCUAA	0.146 ± 0.028
CUUAAGGAGACCUAGUACUGGGAAACCUAA	< 0.0001
CUUAAGGAGUAGGAUCUACUGGGUUACCUAA	0.0101 ± 0.0048
CUUAAGCUCUGGAUCUUCUGGGUUUCCUAA	0.0285 ± 0.0062
CAUUCCUCUGGAUCUACUGGGUUACCUAA	0.502 ± 0.064
CUAUUCCUCUGGAGCUACUGGGUUACCUAA	0.395 ± 0.028
CUUAAGGUCUGGAACUACUGGGAUACCUAA	0.0646 ± 0.025
CUUAUCGUCUGGAUGUACUGGGUUACCUAA	0.051 ± 0.034
GAUUACCUCUGGAUCUACUGGGUUACCUAA	0.104 ± 0.026
CUUAUCCUCUGGUUGUACUGGGUUACCUAA	0.377 ± 0.025

Sequence	pre-steady-state target cleavage rate
GUAAUCCUCUGGAUCUACUGGGUUACCUAA	0.15 ± 0.045
CUUAAGGACUGGAUCUACUGGGUUACGAAA	0.0347 ± 0.03
CUUAACCUCUGCAUCUACUGGGAUACCUAA	0.0864 ± 0.0093
CUUAUCCUCUGGAUCUACUGGGUUUCCAAA	0.166 ± 0.049
CUUAACCUCUGGAUCUACAGGGUUACCUAA	0.18 ± 0.019
CUAUUCCUCUGGAUCAUCUGGGUUACCUAA	0.341 ± 0.038
CUUUUCCUCUCGAUCUUCUGGGUUACCUAA	0.63 ± 0.051
GAAUUCCUCUGUAUCUACUGGGUUACCUAA	0.355 ± 0.049
CUUAAGCUCUGGAUCUACUGGGUUACUCUAA	0.105 ± 0.017
CUUAAGGUGUGGAUCUACUCGGUUACCUAA	0.0184 ± 0.0089
CUUUUCCUCUGGACUCUACUGGGUUACCUAA	0.186 ± 0.023
CUUAAGGACUGGAACUACUGGGUUACCUUA	0.0308 ± 0.028
CUUAAGGUCUGGAUCUACUGCGUUACCUUA	0.138 ± 0.024
CUUAAGCUCUGGAUACUACUGGGUUACCUAA	0.0649 ± 0.015
CUAUUCCUCUGGAUCUACUCGGUUACGUAA	0.107 ± 0.042
CUUUUCCUACUGGAUCUACUGGGUUACCUAA	0.532 ± 0.051
GUAUUCCUCUGGAACUACUGGGUUACCUAA	0.0564 ± 0.03
CUAUUCCUCUGGAACUACUGGGUUUCCUAA	0.337 ± 0.12
CUUAAGGUCUGGAUCUACUGGGUUGCCUAA	0.218 ± 0.023
CUAUUCCUCUGGAUCGUACUGGGUUACCUAA	0.0062 ± 0.0047
CUUAAGCUCUGGACUACUGGGUUACCUAA	0.0641 ± 0.011
CUUUUCCUCAGGAUCUACUCGGUUACCUAA	0.0989 ± 0.022
CUAUUCCUCUGGAUCUACUGGGAUACCUAA	0.286 ± 0.035
GAAUUCCUCUGCAUCUACUGGGUUACCAAA	0.374 ± 0.044

Sequence	pre-steady-state target cleavage rate
CUUAAGCUCUGGAUCAACUGGGUUACCUUA	0.0594 ± 0.0094
CUUAACCUCUGGAUCAACUGGGUUACCAAA	0.191 ± 0.032
GAAUUCCUCUGGAAGAACUGGGUUACCUAA	0.147 ± 0.035
CUUAAGGUCUGGUUCUACUGGGAUACCUAA	0.0504 ± 0.011
GAAUUACUCUGGAUCUACUGGGUUACCUAA	0.0507 ± 0.02
CUUAUCGUCUGGAUCUACUCGGUUACCUAA	0.0341 ± 0.023
CUUAUCCUCUGGAUCUACUGGGAUACCUAA	0.302 ± 0.039
CUUAAGCUCUGGAUCUACUGGGUUACCAA	0.1 ± 0.012
CUUAUCCUCAGGAUCUACUGGGUUUCCUAA	0.353 ± 0.062
GAAUUCCUCUGGAUCAACUGGGUUAGCUAA	0.306 ± 0.039
CUUAAGGAGUGGUUCUAGUGGGUUACCUAA	0.00357 ± 0.0023
CAAUUCCUCUGGUUCUACAGGGUUACCUAA	0.424 ± 0.037
CUAUGUCCUCUGGAUCUACUGGGUUACCUAA	0.0967 ± 0.026
CUUAUCCUCUGGUUCUUCUGGGUUACCUAA	0.308 ± 0.032
CUUAAGGUCUGGAUCUACUGGGUUACUCUAA	0.131 ± 0.032
CUUAUCCUCUGGAUCUACUGGGUUACCUUA	0.342 ± 0.056
CUUAAGGUCUGGAUCUACUGGGUUACCUCA	0.198 ± 0.035
CUUAUCCACUGGAUCUACUGGGUUACCUAA	0.495 ± 0.043
GAAUUCCUGUGCAUCUACUGGGUUACCUAA	0.435 ± 0.029
CUUAACGUCUCGAUCUACUGGGUUACCUAA	0.357 ± 0.041
CUUUUCCUCUGGAACUACUGGGUUACCAAA	0.19 ± 0.034
GAAUUCCUCUGGAUCUACUCGGUUACCAAA	0.147 ± 0.036
CUUAACCUGUCGAUCUACUGGGUUACCUAA	0.367 ± 0.036
CUUAUCCUCUGGAUGUACUGGGUUACCAAA	0.329 ± 0.054
